Consider two compounds from paper PMC4277828 (BMC Pharmacology & Toxicology, 2014).

Broadly, the AUC(0-t) is the area under the concentration-time curve up to a stated or last time point. Broadly, the Cmax is the highest concentration seen after dosing.

Data set [1] in a line: Steady-state plasma pharmacokinetics of lopinavir given with two rifabutin doses (LCMS/MS, non-compartmental analysis). Particulars: Median (Interquartile range); for concentration at 0 h / concentration at 12 h: human, plasma, oral; for concentration at 0 h: C0 (pre-dose concentration); for concentration at 12 h: Cmin (trough concentration).
Data set [2] in a line: Steady-state plasma pharmacokinetics of rifabutin and 25-O-desacetylrifabutin with and without LPV/r-based ART (three-period crossover, LC/MS/MS, non-compartmental analysis). Particulars: median (interquartile range), n = 14.
Where [3] appears, read: Rifabutin 150 mg daily plus LPV/r.

As for `Cc1cccc(C)c1OCC(=O)N[C@@H](Cc1ccccc1)[C@@H](O)C[C@H](Cc1ccccc1)NC(=O)[C@H](C(C)C)N1CCCNC1=O` [lopinavir], in data set [1] (RBT 150 mg tiw plus LPV/r), the Tmax is on record as 2.0 (2.0-3.0) h, the concentration at 0 h is 9800 ng/mL and the concentration at 12 h worked out at 7400 ng/mL. In data set [1] (RBT 150 mg daily plus LPV/r), the concentration at 0 h was 11400 ng/mL and the concentration at 12 h turned out to be 9400 ng/mL.

As for `CO[C@H]1/C=C/O[C@@]2(C)Oc3c(C)c(O)c4c(c3C2=O)C2=NC3(CCN(CC(C)C)CC3)NC2=C(NC(=O)/C(C)=C\C=C\[C@H](C)[C@H](O)[C@@H](C)[C@@H](O)[C@@H](C)[C@H](OC(C)=O)[C@@H]1C)C4=O` [Rifabutin, rifabutin], the “C0 (pre-dose concentration)” value is recorded as 176.5 (149.0-195.0) ng/mL in data set [2] (setting [3]) and 49.1 (27.7-58.9) ng/mL in data set [2] (Rifabutin 150 mg tiw plus LPV/r). In data set [2] (setting [3]), the Tmax is 3.0 (3.0-4.0) h. In addition, in data set [2] (human, plasma, oral, 150 mg, AUC0–48, Rifabutin 150 mg tiw plus LPV/r), the AUC(0-t) was 3400 ng·h/mL. The Cmax in data set [2] (human, plasma, oral, 150 mg, Rifabutin 150 mg daily plus LPV/r) stood at 311 ng/mL; in data set [2] (human, plasma, oral, 150 mg, Rifabutin 150 mg tiw plus LPV/r), 168 ng/mL.
